The other results are listed elsewhere or left out. Many values rest on one well or one pass, so single values are uncertain.
Key:
Assay in all cases: cell count relative to DMSO control; melanoma cells; higher = more viable cells
Conditions in all cases: library dose: low library concentration; 72 h
MZ2-MEL = system: MZ2-MEL
MeWo = system: MeWo
RPMI7951 = system: RPMI7951
RVH-421 = system: RVH-421
SkMel28 = system: SkMel28
SkMel2 = system: SkMel2
SkMel30 = system: SkMel30
SkMel5 = system: SkMel5
UACC257 = system: UACC257
UACC62 = system: UACC62
WM115 = system: WM115
WM1716 = system: WM1716
WM1745 = system: WM1745
WM3526 = system: WM3526
WM3619 = system: WM3619
WM451Lu = system: WM451Lu
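Further: cell number obtained by counting DAPI-stained nuclei in high-throughput microscope images with image analysis software, screen run in 1,536-well plates.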

Structure (SMILES)	cell count (MZ2-MEL) [%]	cell count (MeWo) [%]	cell count (RPMI7951) [%]	cell count (RVH-421) [%]	cell count (SkMel28) [%]	cell count (SkMel2) [%]	cell count (SkMel30) [%]	cell count (SkMel5) [%]	cell count (UACC257) [%]	cell count (UACC62) [%]	cell count (WM115) [%]	cell count (WM1716) [%]	cell count (WM1745) [%]	cell count (WM3526) [%]	cell count (WM3619) [%]	cell count (WM451Lu) [%]
O=C(/C=C/c1cccnc1)NCCCCC1CCN(C(=O)c2ccccc2)CC1 + COc1cc(N2CCC(N3CCN(C)CC3)CC2)ccc1Nc1ncc(Cl)c(Nc2ccccc2S(=O)(=O)C(C)C)n1 [NVP-TAE684] (first compound 0.01 µM, partner dose 0.08 µM)	46.9	94.7	97.7	43.3	88.5	39.7	88.7	87.6	76	96.2	85.6	102	75.1	103	99.2	112
CC1(C)CCC(c2ccc(Cl)cc2)=C(CN2CCN(c3ccc(C(=O)NS(=O)(=O)c4ccc(N[C@H](CCN5CCOCC5)CSc5ccccc5)c(S(=O)(=O)C(F)(F)F)c4)cc3)CC2)C1 + Cc1cc([N+](=O)[O-])ccc1NS(=O)(=O)c1cc(Cl)ccc1Cl [FH535] (first compound 0.4 µM, partner dose 1 µM)	87.7	58.2	55.5	56.5	67.3	92.9	45.7	54.3	74.3	93.5	60	66.6	16.8	84.3	94.2	68.1
CC1(C)CCC(c2ccc(Cl)cc2)=C(CN2CCN(c3ccc(C(=O)NS(=O)(=O)c4ccc(N[C@H](CCN5CCOCC5)CSc5ccccc5)c(S(=O)(=O)C(F)(F)F)c4)cc3)CC2)C1 + Cn1cc(/C=C2\C(=O)Nc3cccnc32)c2ccccc21 [GW441756] (first compound 0.4 µM, partner dose 0.4 µM)	90.8	88.1	74.1	72.4	90.5	92.5	76	64.1	63.2	89.2	89.6	105	17.7	87.9	112	104
CC1(C)CCC(c2ccc(Cl)cc2)=C(CN2CCN(c3ccc(C(=O)NS(=O)(=O)c4ccc(N[C@H](CCN5CCOCC5)CSc5ccccc5)c(S(=O)(=O)C(F)(F)F)c4)cc3)CC2)C1 + Cc1ccc(NC(=O)c2cccc(N(C)C)c2)cc1NC(=O)c1ccc(O)cc1 [ZM336372] (first compound 0.4 µM, partner dose 2 µM)	73.4	81.1	52.3	77	78.2	92.1	65.4	69	86.7	91.6	90.2	78.3	7.82	87.1	48.5	124
CC1(C)CCC(c2ccc(Cl)cc2)=C(CN2CCN(c3ccc(C(=O)NS(=O)(=O)c4ccc(N[C@H](CCN5CCOCC5)CSc5ccccc5)c(S(=O)(=O)C(F)(F)F)c4)cc3)CC2)C1 + CC(C)(C)c1cnc(CSc2cnc(NC(=O)C3CCNCC3)s2)o1 [SNS-032] (first compound 0.4 µM, partner dose 0.01 µM)	106	82.6	50.2	63.4	81	81.6	78.5	65.8	71	87.6	88.4	85.2	16.3	110	78.8	77.8
Cc1ccc(Nc2nccc(N(C)c3ccc4c(C)n(C)nc4c3)n2)cc1S(N)(=O)=O [Pazopanib] + COc1ccc(-c2ccc3c(N4CCOCC4)nc(N4C[C@@H](C)O[C@@H](C)C4)nc3n2)cc1CO [KU0063794] (first compound 0.4 µM, partner dose 0.02 µM)	82.2	98.9	75.6	90.9	85	101	87.8	89.6	69.2	92.7	93.8	84.9	95.6	86.6	83.8	95.8
Cc1ccc(Nc2nccc(N(C)c3ccc4c(C)n(C)nc4c3)n2)cc1S(N)(=O)=O [Pazopanib] + O=C(O)C(=O)Nc1sc2c(c1C(=O)O)CCNC2 [TCS401] (first compound 0.4 µM, partner dose 1.66667 µM)	73	116	90.8	102	90	114	104	82	88.3	108	104	93	82.3	101	93.3	96.1
CC1(C)CCC(c2ccc(Cl)cc2)=C(CN2CCN(c3ccc(C(=O)NS(=O)(=O)c4ccc(N[C@H](CCN5CCOCC5)CSc5ccccc5)c(S(=O)(=O)C(F)(F)F)c4)cc3)CC2)C1 + OCCn1cc(-c2cnc3nnn(Cc4ccc5ncccc5c4)c3n2)cn1 [PF04217903] (first compound 0.4 µM, partner dose 1 µM)	101	73.5	66.5	98.1	89.2	98.4	70.6	72.9	87.1	96.3	83.8	87	22.9	109	83.7	96.8
CC1(C)CCC(c2ccc(Cl)cc2)=C(CN2CCN(c3ccc(C(=O)NS(=O)(=O)c4ccc(N[C@H](CCN5CCOCC5)CSc5ccccc5)c(S(=O)(=O)C(F)(F)F)c4)cc3)CC2)C1 + c1cc(-c2cnn3cc(-c4ccc(OCCN5CCCCC5)cc4)cnc23)ccn1 [Dorsomorphin] (first compound 0.4 µM, partner dose 0.4 µM)	94.1	56.5	59.9	89.7	92.6	92.8	84.4	55.5	93.1	103	81.5	74.5	10.7	82.7	88	82.8
O=C(/C=C/c1cccnc1)NCCCCC1CCN(C(=O)c2ccccc2)CC1 + OCCn1cc(-c2cnc3nnn(Cc4ccc5ncccc5c4)c3n2)cn1 [PF04217903] (first compound 0.01 µM, partner dose 1 µM)	38	117	105	72.1	81.9	50.4	97.7	90.3	95.1	94.4	93.5	95.9	120	94.5	117	94.8
O=C(/C=C/c1cccnc1)NCCCCC1CCN(C(=O)c2ccccc2)CC1 + O=C1NC(=O)/C(=C/c2ccc(-c3ccc(F)cc3O)o2)S1 [AS252424] (first compound 0.01 µM, partner dose 1 µM)	40.6	87.1	106	45.1	126	45.5	71.2	95.5	115	106	93	103	95.7	89.2	79.6	104
Cc1ccc(Nc2nccc(N(C)c3ccc4c(C)n(C)nc4c3)n2)cc1S(N)(=O)=O [Pazopanib] + Oc1nc(-c2ccc(C(F)(F)F)cc2)nc2c1CSCC2 [XAV939] (first compound 0.4 µM, partner dose 2 µM)	69.8	103	71	101	78.8	85.4	96.6	74	74.2	88.2	94.7	48.5	84.4	90.8	64.3	84.2
CC1(C)CCC(c2ccc(Cl)cc2)=C(CN2CCN(c3ccc(C(=O)NS(=O)(=O)c4ccc(N[C@H](CCN5CCOCC5)CSc5ccccc5)c(S(=O)(=O)C(F)(F)F)c4)cc3)CC2)C1 + COc1cc(Nc2ncc(F)c(Nc3ccc4c(n3)NC(=O)C(C)(C)O4)n2)cc(OC)c1OC [Tamatinib] (first compound 0.4 µM, partner dose 0.4 µM)	76.6	67.7	54.6	67.8	73.2	76.9	60.9	68	43.7	72.8	49	84.4	11.1	90.6	61.5	114
O=C(/C=C/c1cccnc1)NCCCCC1CCN(C(=O)c2ccccc2)CC1 + O=C(Nc1ccccc1)c1cc([N+](=O)[O-])ccc1Cl [GW9662] (first compound 0.01 µM, partner dose 2 µM)	33.4	100	95.2	55.8	86.3	31.2	96.9	90.1	102	97.4	94	94.9	108	106	63.1	117
CC1(C)CCC(c2ccc(Cl)cc2)=C(CN2CCN(c3ccc(C(=O)NS(=O)(=O)c4ccc(N[C@H](CCN5CCOCC5)CSc5ccccc5)c(S(=O)(=O)C(F)(F)F)c4)cc3)CC2)C1 + N#Cc1c(O)c2c(-c3ccc(-c4ccccc4O)cc3)csc2[nH]c1=O [A769662] (first compound 0.4 µM, partner dose 2 µM)	98.5	63.9	51.6	76	95.4	88	68.5	63.5	96.4	96	97.4	65	6.6	87.4	85.5	81.4
CC1(C)CCC(c2ccc(Cl)cc2)=C(CN2CCN(c3ccc(C(=O)NS(=O)(=O)c4ccc(N[C@H](CCN5CCOCC5)CSc5ccccc5)c(S(=O)(=O)C(F)(F)F)c4)cc3)CC2)C1 + COc1ccc(COc2ccc(Cc3cnc(N)nc3N)cc2OC)cc1 [GW2580] (first compound 0.4 µM, partner dose 1 µM)	97.9	68.6	62.3	55.6	109	87.2	67.2	69.6	134	102	92.8	102	17.4	97.6	79.7	87.8
